Laboratory results as given in the supplement of paper PMC11417369.
This is one part of the list.

What follows are sequences tested on PfSIP2 AP2 domain 1 (GST-tagged) (assay: gcPBM binding intensity (ln(normalized median fluorescence intensity)); higher = stronger DNA binding).
In short: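 After 1 h on an Agilent 4 × 180k array of primer-extended double-stranded 36-bp intergenic genomic probes and negative controls, bound GST-tagged P. falciparum DNA-binding domains were detected with Alexa488 anti-GST antibody and scanned at 488 nm. The domains had been expressed in E. coli, and binding took place in 1× PBS with 1% milk, 0.2 mg/ml BSA, 0.5% salmon testes DNA and 0.03% Triton X-100. Binding intensity is the highest Masliner-normalised natural-log median intensity across replicate spots of either probe orientation.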
With “AAATAGAGAAATACAAGTACATACTAAACCTATCTA [XGTACX_site1334]” the “gcPBM binding intensity (ln)” value was 6.85. “AGGATTATATATTAATGTACCCGCGTTAATTTTTTT [XGTACX_site2878]” was tested, and the “gcPBM binding intensity (ln)” value was 6.82. “TTTTTTAAACGTTTAAATAATTAAATATAAATAAAT [CACACA_negctrl_site1567]” was tested, and the “gcPBM binding intensity (ln)” value was 6.85. With “TGAACAACTATTACTGCACACATTCTTACACTATAT [CACACA_site4533]” the “gcPBM binding intensity (ln)” value was 7.23. With “AAAAAAGAAACAATCGCATGCAATGTTAATGTACAT [TGCATGCA_site395]” the “gcPBM binding intensity (ln)” value was 6.77. In the case of “TACGCAAAATAAAATCAAAATATAAGGAAAAAAAAA [TGCATGCA_negctrl_site578]”, the “gcPBM binding intensity (ln)” value is reported as 6.69. In the case of “AGGTGTCATATATGCACACAAAAGTAACACGCACCT [CACACA_site472]”, the “gcPBM binding intensity (ln)” value is reported as 9.63. “GACCTACAAAAAGGCACACATATACTCATACATACA [CACACA_site5232]” was tested, and the “gcPBM binding intensity (ln)” value was 7.25. In the case of “ACATTTATTTTGAATGGTACACTATTATTATGAAAT [XGTACX_site4384]”, the “gcPBM binding intensity (ln)” value is reported as 6.96. GTGTAATGCTTATCGGTGCATATATATATATATATA was tested, and the “gcPBM binding intensity (ln)” value was 9.86. “AAAAAAAAAAAAGGTACTACACACTATTATCAATAG [XGTACX_site161]” was tested, and the “gcPBM binding intensity (ln)” value was 7.05. “GATAATTTTTGCATATGTACTTAAAAATTAAAAATT [XGTACX_site7037]” was tested, and the “gcPBM binding intensity (ln)” value was 7.17. “ATTAAAAAATCCATAGTGCACTACGATAGGTTCCGA [GTGCAC_site9463]” was tested, and the “gcPBM binding intensity (ln)” value was 10.5. For “AAAGATGGAGTGATATGTACTGATATATTATTATAT [XGTACX_site6500]”, the “gcPBM binding intensity (ln)” value was 6.99. “AAGCATAAAGTATATAGTACATATATATATATATAT [XGTACX_site2945]” was tested, and the “gcPBM binding intensity (ln)” value was 9.87. With “ATATAGTAAAGTTATACACACATGAATTTTCCCATA [CACACA_site7457]” the “gcPBM binding intensity (ln)” value was 6.96. For “ATATTTTAATTATAAAGTACATAAAAATATATAAAC [XGTACX_site6705]”, the “gcPBM binding intensity (ln)” value was 6.99. With “TTTTTTATTGTGATACGTATATTATTTTATGATAAA [CACACA_negctrl_site1591]” the “gcPBM binding intensity (ln)” value was 7.08. In the case of “TAAAAATGTAAACACACACACATAAATATATTTTAT [CACACA_site5397]”, the “gcPBM binding intensity (ln)” value is reported as 6.92. In the case of “CTTTTGCCCAAAAAGGTACACACCACAATGTACATA [CACACA_site809]”, the “gcPBM binding intensity (ln)” value is reported as 7.08. With “GTTAATATACATAAACGTACAGAATTATTATGAGTT [XGTACX_site5185]” the “gcPBM binding intensity (ln)” value was 6.99. In the case of “TAAATAATCGCATAATGTACATATAATTTTTTTTTT [XGTACX_site4880]”, the “gcPBM binding intensity (ln)” value is reported as 6.82. With “AAAATTTTTTTTATTTGTACACAATTCGATACATAA [XGTACX_site4804]” the “gcPBM binding intensity (ln)” value was 7.01. In the case of “GCTTGGATATATTAATGTACTTATATATTATGTTGT [XGTACX_site3768]”, the “gcPBM binding intensity (ln)” value is reported as 7.15. In the case of “CCAATTCAAATATGCACACAAATTTGAAAACGATTA [CACACA_site3607]”, the “gcPBM binding intensity (ln)” value is reported as 7.26. With “TTTGTTGTTGTGAAACGTACTCATAGGATGTTGTAT [XGTACX_site5716]” the “gcPBM binding intensity (ln)” value was 7.26. With “ATATTTTCAATGTTCACACATACACAAAAAAAAAAA [CACACA_site6077]” the “gcPBM binding intensity (ln)” value was 7.16. With “TTACTAAACTTATATGTACACACATATAACATTAAT [CACACA_site8710]” the “gcPBM binding intensity (ln)” value was 7.28. “GTAAAAATTTCATATTCACACACAAAAAAAAAAAAT [CACACA_site8457]” was tested, and the “gcPBM binding intensity (ln)” value was 7.11. “TAAAAAAAAAAAAAAAGTACCCATACTATATTACAT [XGTACX_site946]” was tested, and the “gcPBM binding intensity (ln)” value was 6.85. For “AAGAATTTTACAAAATGTACTTATGTTTTGTTTTAC [XGTACX_site5632]”, the “gcPBM binding intensity (ln)” value was 6.83. For “AGTAGTCTGGAGAAGAGTACATAGTATCTGATAACC [XGTACX_site2044]”, the “gcPBM binding intensity (ln)” value was 7.16. For “ATAAATAAATTTATACGTACACATAATATATATATA [XGTACX_site4634]”, the “gcPBM binding intensity (ln)” value was 8.89. “ATTGAAAATTATTTACCTTCTTTGAAAGAACAAATG [CACACA_negctrl_site1736]” was tested, and the “gcPBM binding intensity (ln)” value was 6.75. For AAAAATAAAATGATGGTGCACATAAAGTATGGTTAC, the “gcPBM binding intensity (ln)” value was 11.3. “TAATTAATATATTTTTGTACTTATATATTTGCGTAT [XGTACX_site340]” was tested, and the “gcPBM binding intensity (ln)” value was 6.85. For “AATCCACAAAGACACACACACACATATATATATATA [CACACA_site1269]”, the “gcPBM binding intensity (ln)” value was 9.77. In the case of “AAAATTCTTCGGGGGAGTACAAGGATATTCTACGTT [XGTACX_site3974]”, the “gcPBM binding intensity (ln)” value is reported as 7.83. With “TTATAATATATATGTGGTACTTATTTATTTATTTAT [XGTACX_site7572]” the “gcPBM binding intensity (ln)” value was 6.92. For “TTTTGTAATTTTGTATGTACACATTAAAGTAATATG [XGTACX_site2401]”, the “gcPBM binding intensity (ln)” value was 7.41. In the case of “ATTTTTGATTTTAAAAGTACATAAGTATACTATTTA [XGTACX_site7162]”, the “gcPBM binding intensity (ln)” value is reported as 7.04. With “TTTAAAAAAAATATGTGTACTTAATATTTTCATATA [XGTACX_site7421]” the “gcPBM binding intensity (ln)” value was 6.78. In the case of “TACATATAAATAATAACACACACCTAGGTACATGGA [CACACA_site838]”, the “gcPBM binding intensity (ln)” value is reported as 6.89. With “CATACACAGAAACACACACACATATATATATATATA [CACACA_site4519]” the “gcPBM binding intensity (ln)” value was 9.79.
